These are yes or no findings as the source states them, for the method shown. In cells and extracts the contact can be indirect. Tags and fused reporters may be left off the sequences shown.
How the values were obtained:
GFP-Dbp5 (S. cerevisiae) [1] = molecular target: T1, GFP-Dbp5 (S. cerevisiae) (UniProt P20449); experiment: co-IP; GFP-tagged bait on GFP-Trap_A beads from clarified yeast lysate, PBSKMT (0.5% Triton-X 100), 3 h at 4°C, no RNase A treatment indicated; Western blot; in some panels wild type and drg1-18 cells shifted for 1 h to 37°C
T1 sequence: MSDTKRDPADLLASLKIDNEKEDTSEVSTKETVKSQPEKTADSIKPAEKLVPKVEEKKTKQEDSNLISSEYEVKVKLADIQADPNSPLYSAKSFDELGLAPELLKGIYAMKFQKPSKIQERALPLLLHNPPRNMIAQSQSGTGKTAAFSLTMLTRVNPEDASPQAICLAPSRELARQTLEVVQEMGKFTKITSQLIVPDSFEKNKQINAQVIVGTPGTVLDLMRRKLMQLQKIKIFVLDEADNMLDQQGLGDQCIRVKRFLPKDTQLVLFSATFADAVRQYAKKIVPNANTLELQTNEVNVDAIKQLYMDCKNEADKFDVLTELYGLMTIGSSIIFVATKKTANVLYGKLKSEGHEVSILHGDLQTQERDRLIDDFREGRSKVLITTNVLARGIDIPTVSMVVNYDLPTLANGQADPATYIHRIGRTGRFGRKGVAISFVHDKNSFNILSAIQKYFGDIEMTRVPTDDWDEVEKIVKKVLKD

GFP-Dbp5 (S. cerevisiae) [2] = molecular target: T1, GFP-Dbp5 (S. cerevisiae); experiment: co-IP; GFP-tagged bait on GFP-Trap_A beads from clarified yeast lysate, PBSKMT (0.5% Triton-X 100), 3 h at 4°C, samples treated with 0.2 mg/ml RNase A for 30 min at 4°C; Western blot; in some panels wild type and dbp5 mutant cells after a 1 h temperature shift
Nmd3-GFP (S. cerevisiae) = molecular target: T2, Nmd3-GFP (S. cerevisiae) (UniProt P38861); experiment: as above
T2 sequence: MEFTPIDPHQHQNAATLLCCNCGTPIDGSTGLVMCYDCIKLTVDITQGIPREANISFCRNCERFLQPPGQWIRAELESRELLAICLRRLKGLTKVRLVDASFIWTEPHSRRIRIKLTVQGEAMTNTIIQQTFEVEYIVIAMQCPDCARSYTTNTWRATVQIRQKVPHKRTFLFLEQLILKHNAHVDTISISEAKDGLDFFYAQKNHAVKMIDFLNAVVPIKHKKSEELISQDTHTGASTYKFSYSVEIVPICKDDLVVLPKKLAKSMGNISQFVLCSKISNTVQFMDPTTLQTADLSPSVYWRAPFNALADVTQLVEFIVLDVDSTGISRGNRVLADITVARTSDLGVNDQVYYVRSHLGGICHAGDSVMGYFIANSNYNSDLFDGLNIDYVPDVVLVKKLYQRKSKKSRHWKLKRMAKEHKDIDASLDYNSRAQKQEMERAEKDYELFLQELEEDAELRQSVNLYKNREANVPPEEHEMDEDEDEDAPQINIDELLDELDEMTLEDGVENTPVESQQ

Measured: binding

B1: Hem15 (protein, UniProt P16622 32-393)
chain: NAQKRSPTGIVLMNMGGPSKVEETYDFLYQLFADNDLIPISAKYQKTIAKYIAKFRTPKIEKQYREIGGGSPIRKWSEYQATEVCKILDKTCPETAPHKPYVAFRYAKPLTAETYKQMLKDGVKKAVAFSQYPHFSYSTTGSSINELWRQIKALDSERSISWSVIDRWPTNEGLIKAFSENITKKLQEFPQPVRDKVVLLFSAHSLPMDVVNTGDAYPAEVAATVYNIMQKLKFKNPYRLVWQSQVGPKPWLGAQTAEIAEFLGPKVDGLMFIPIAFTSDHIETLHEIDLGVIGESEYKDKFKRCESLNGNQTFIEGMADLVKSHLQSNQLYSNQLPLDFALGKSNDPVKDLSLVFGNHEST
no binding: GFP-Dbp5 (S. cerevisiae) [1] | GFP-Dbp5 (S. cerevisiae) [2] | Nmd3-GFP (S. cerevisiae)
